Results reported in PubChem BioAssay (NCATS).
Values joined by “and” are separate entries in the source; they are usually repeats but may differ in a detail not shown here. Identical values can stand only once. Inconclusive results, whose numbers are uncertain, are shown with a selection of clear calls. For part of these data: A potency beside an inconclusive call is a rough fit, not a confirmed value. Active and inactive are the calls of the source. Unless noted, the call rests on the fitted dose curve; in most records, active means well fitted curve in the direction sought with a large enough effect; inconclusive means small, poorly fitted or top-dose-only effect, or another doubt; inactive means no such curve, though single readings can be large; an effect the other way counts as inactive or inconclusive.

What was measured:
[1] = target: Aldehyde dehydrogenase, mitochondrial (Homo sapiens) (UniProt P05091); test: qHTS for Inhibitors of the Aldehyde Dehydrogenase Family (ALDH2) Confirmatory screens (AID 2061303; active means well fitted inhibition curve with a large enough effect; inconclusive means small, poorly fitted or top-dose-only effect; inactive means no such curve, though single readings can be large or run the other way; title and protocol of this record describe different tests; further: potency means the concentration at half of the fitted maximal effect; nearly all actives have a fitted effect of over 45% in size); conditions: ALDH inhibition qHTS; activity change, negative = inhibition: at 45.4 µM (top of the series)
[2] = qHTS for Inhibitors of the Aldehyde Dehydrogenase Family (ALDH1A2, ALDH1A3, ALDH2, ALDH3A1) (AID 2061307); conditions: ALDH inhibition qHTS; activity change, negative = inhibition: at 50.3 µM (top of the series) unless noted; further: nearly all actives have a fitted effect of over 50% in size; on potency: test system not described further here; potency means the concentration at half of the fitted maximal effect
[3] = target: Aldehyde dehydrogenase, mitochondrial (Homo sapiens) (UniProt P05091); test: qHTS for Inhibitors of the Aldehyde Dehydrogenase Family (ALDH2) Primary screen (AID 2061308); conditions: ALDH2 enzyme inhibition qHTS, 1536-well; series mostly up to 56 µM; further: nearly all actives have a fitted effect of over 55% in size; further: potency means the concentration at half of the fitted maximal effect
[4] = target: Retinal dehydrogenase 2 (Homo sapiens) (UniProt O94788); test: qHTS for Inhibitors of the Aldehyde Dehydrogenase Family (ALDH1A2) Confirmation screens (AID 2061314); conditions: ALDH1A2 enzyme inhibition qHTS confirmation; series mostly up to 45.9 µM; further: potency means the concentration at half of the fitted maximal effect; nearly all actives have a fitted effect of over 65% in size
[5] = target: Retinaldehyde dehydrogenase 3 (Homo sapiens) (UniProt P47895); test: qHTS for Inhibitors of the Aldehyde Dehydrogenase Family (ALDH1A3) Primary screen (AID 2061315); conditions: ALDH inhibition qHTS; activity change, negative = inhibition: at 56 µM (top of the series) unless noted; further: potency means the concentration at half of the fitted maximal effect
[6] = target: Aldehyde dehydrogenase 1A1 (Homo sapiens) (UniProt P00352); test: qHTS for Inhibitors of the Aldehyde Dehydrogenase Family (ALDH1A1) Confirmatory screens (AID 2061316); conditions: ALDH inhibition qHTS; activity change, negative = inhibition: at 47.3 µM (top of the series); series mostly up to 47.3 µM; further: potency means the concentration at half of the fitted maximal effect; nearly all actives have a fitted effect of over 65% in size
[7] = target: Retinaldehyde dehydrogenase 3 (Homo sapiens) (UniProt P47895); test: qHTS for Inhibitors of the Aldehyde Dehydrogenase Family (ALDH1A3) Validation screen (AID 2061312); conditions: ALDH1A3 enzyme inhibition qHTS validation, fluorescence; activity change, negative = inhibition: at 84.7 µM (top of the series); further: potency means the concentration at half of the fitted maximal effect; nearly all actives have a fitted effect of over 45% in size
[8] = target: Retinaldehyde dehydrogenase 3 (Homo sapiens) (UniProt P47895); test: qHTS for Inhibitors of the Aldehyde Dehydrogenase Family (ALDH1A3) Confirmatory screens (AID 2061311); conditions: ALDH inhibition qHTS; activity change, negative = inhibition: at 46 µM (top of the series); series mostly up to 46 µM; further: nearly all actives have a fitted effect of over 60% in size
Tags describe the fitted curve by direction and shape.

CC(=O)Nc1sc2c(c1-c1ccccc1)CCN(C(=O)OC(C)(C)C)C2
Potency [1]: inconclusive: 4 µM [inhibitor, full curve] | Potency [2]: inconclusive: 5.04 µM [inhibitor, partial curve] | Potency [3]: inconclusive: 22.4 µM [inhibitor, partial curve] | Potency [4]: inconclusive: 0.798 µM [inhibitor, full curve]

C[C@]12CC[C@@H]3c4ccc(O)c(O)c4CC[C@H]3[C@@H]1CCC2=O
Potency [1]: inconclusive: 12.7 µM [inhibitor, partial curve] | Potency [2]: inconclusive: 11.3 µM [inhibitor, partial curve] | Potency [3]: active: 15.8 µM | Potency [4]: inconclusive: 31.8 µM [inhibitor, partial curve] | Potency [5]: inconclusive: 4.47 µM [inhibitor, partial curve, poor fit] | Potency [6]: active: 1.59 µM

C=CC(=O)N1CC(N2CCN(C(=O)CNc3cc(C4CC4)c(Cl)cc3O)CC2)C1
Potency [1]: inconclusive: 12.7 µM [inhibitor, partial curve, poor fit] | Potency [2]: inconclusive: 11.3 µM [inhibitor, partial curve] and inconclusive: 15.8 µM [inhibitor, partial curve, poor fit] | Potency [3]: inconclusive: 15.8 µM [inhibitor, partial curve, poor fit] | Potency [7]: active: 10 µM | Potency [4]: inconclusive: 25.2 µM [inhibitor, partial curve, poor fit] | Potency [5]: active: 2.51 µM | Potency [6]: active: 22.5 µM

CN(C)CCCNc1cc(O)c2ncccc2c1
Potency [1]: inconclusive: 4.49 µM [inhibitor, partial curve] | Potency [2]: inactive | Potency [3]: inconclusive: 0.355 µM [inhibitor, full curve, poor fit] | Potency [4]: inconclusive: 0.357 µM [inhibitor, full curve, poor fit] | Potency [5]: inconclusive: 1.41 µM [inhibitor, full curve]

CN(C)c1ccc(C2O[C@@H](c3ccccc3)C[C@H](c3ccccc3)O2)cc1 (some centres not stated)
Potency [1]: active: 3.55 µM | Potency [2]: active: 3.57 µM and inconclusive: 2.24 µM [inhibitor, full curve, poor fit] | Potency [3]: inconclusive: 25.1 µM [inhibitor, partial curve, poor fit] | Potency [7]: active: 44.7 µM | Potency [4]: active: 10 µM | Potency [5]: inconclusive: 14.1 µM [inhibitor, partial curve] | Potency [6]: active: 10 µM

CC(=O)Nc1sc2c(c1-c1cc3ccccc3o1)CCNC2
Potency [1]: inconclusive: 11.3 µM [inhibitor, partial curve] | Potency [2]: inconclusive: 28.3 µM [inhibitor, single point] | Potency [3]: inconclusive: 28.2 µM [inhibitor, single point] | Potency [4]: inconclusive: 17.9 µM [inhibitor, partial curve] | Potency [5]: inconclusive: 2.82 µM [inhibitor, partial curve, poor fit] | Potency [6]: active: 8.96 µM

CCOc1ccc(Cc2nc(-c3c(C)nc4ccccn34)cs2)cc1
Potency [1]: active: 12.6 µM | Potency [2]: active: 11.2 µM | Potency [3]: inactive | Potency [4]: inconclusive: 11.3 µM [inhibitor, partial curve]

CC[C@H](NC(=O)c1c(O)c(-c2ccccc2)nc2ccccc12)c1ccccc1
Potency [1]: inconclusive: 0.631 µM [inhibitor, full curve, poor fit] | Potency [2]: inconclusive: 7.98 µM [inhibitor, partial curve] | Potency [3]: inactive | Potency [7]: inconclusive: 2.51 µM [inhibitor, full curve] | Potency [5]: inconclusive: 8.91 µM [inhibitor, partial curve, poor fit]

CN(CC(=O)Nc1ccc(N2CCOCC2)cc1)Cc1c(O)ccc2ccccc12
Potency [1]: active: 11.3 µM | Potency [2]: active: 2.83 µM | Potency [3]: inconclusive: 7.08 µM [inhibitor, partial curve] | Potency [4]: active: 10.1 µM | Potency [5]: inconclusive: 0.447 µM [inhibitor, full curve, poor fit]

CC(=O)Nc1sc2c(c1-c1ccc(N3CCN(C)CC3)cc1)CCNC2
Potency [1]: inconclusive: 25.2 µM [inhibitor, partial curve, poor fit] | Potency [2]: inactive | Potency [3]: inconclusive: 28.2 µM [inhibitor, single point] | Potency [4]: inconclusive: 11.3 µM [inhibitor, partial curve, poor fit] | Potency [5]: inconclusive: 17.8 µM [inhibitor, partial curve, poor fit]

Oc1ccc(CNc2cc(Cl)ccn2)c2cccnc12
Potency [1]: inconclusive: 4 µM [inhibitor, partial curve] | Potency [2]: inconclusive: 5.04 µM [inhibitor, full curve] | Potency [3]: inactive | Potency [4]: active: 12.7 µM | Potency [5]: inconclusive: 15.8 µM [inhibitor, partial curve, poor fit] | Potency [6]: active: 8.96 µM

CC(C)N1CCc2c(sc(NC(=O)c3ccccc3)c2-c2nc3ccccc3s2)C1
Potency [1]: inconclusive: 6.34 µM [inhibitor, partial curve, poor fit] | Potency [2]: inconclusive: 10.1 µM [inhibitor, partial curve] | Potency [3]: active: 22.4 µM | Potency [4]: inconclusive: 5.65 µM [inhibitor, partial curve] | Potency [5]: inconclusive: 28.2 µM [inhibitor, single point] | Potency [6]: inconclusive: 3.18 µM [inhibitor, full curve]

Cc1ccnc(NC(=S)N2CCN(c3ccc4ccccc4n3)CC2)c1
Potency [1]: inconclusive: 17.8 µM [inhibitor, full curve] | Potency [2]: inconclusive: 17.8 µM [inhibitor, partial curve, poor fit] | Potency [3]: active: 2.82 µM | Potency [4]: inconclusive: 22.5 µM [inhibitor, partial curve] | Potency [5]: inconclusive: 2.24 µM [inhibitor, full curve]

CC(C)(C)OC(=O)N1CCN(c2ccc(NCc3cccc(-c4ccc(C#N)cc4)n3)cc2)CC1
Potency [1]: active: 0.201 µM | Potency [2]: active: 0.142 µM | Potency [3]: inconclusive: 0.316 µM [inhibitor, full curve, poor fit] | Potency [4]: inconclusive: 14.2 µM [inhibitor, partial curve, poor fit]

N#Cc1ccc(-c2ccc(CNc3ccc(N4CCOCC4)cc3)o2)cc1
Potency [1]: active: 0.04 µM | Potency [2]: active: 0.565 µM | Potency [3]: inconclusive: 0.1 µM [inhibitor, full curve, poor fit] | Potency [4]: inconclusive: 1.79 µM [inhibitor, full curve, poor fit] | Potency [5]: inconclusive: 25.1 µM [inhibitor, partial curve, poor fit]

Cc1cc(C)nc(NC(=S)N2CCN(c3cccc4cnccc34)CC2)c1
Potency [1]: inconclusive: 12.7 µM [inhibitor, partial curve] | Potency [2]: inconclusive: 0.251 µM [inhibitor, full curve, poor fit] | Potency [3]: inconclusive: 28.2 µM [inhibitor, partial curve] | Potency [4]: active: 8.96 µM | Potency [5]: inconclusive: 28.2 µM [inhibitor, partial curve, poor fit]

O=S1(=O)N=C(Oc2cccc3ccccc23)c2ccccc21
Potency [1]: inconclusive: 14.2 µM [inhibitor, partial curve] | Potency [2]: active: 2.83 µM | Potency [3]: inconclusive: 4.47 µM [inhibitor, partial curve, poor fit] | Potency [4]: active: 12.7 µM | Potency [5]: inconclusive: 1.41 µM [inhibitor, full curve] | Potency [6]: inconclusive: 25.1 µM [inhibitor, partial curve]

Cc1ccnc(NC(=S)N2CCN(c3ccc(O)cc3)CC2)c1
Potency [1]: inconclusive: 22.5 µM [inhibitor, partial curve, poor fit] | Potency [2]: inconclusive: 12.7 µM [inhibitor, partial curve] | Potency [3]: inconclusive: 7.08 µM [inhibitor, full curve, poor fit] | Potency [4]: inconclusive: 12.7 µM [inhibitor, partial curve] | Potency [5]: inconclusive: 2.51 µM [inhibitor, partial curve, poor fit] | Potency [6]: active: 7.98 µM

O=[S+]([O-])(Nc1nccs1)c1ccc(NCc2cc(F)cc(Cl)c2O)cc1
Potency [1]: inconclusive: 11.3 µM [inhibitor, partial curve, poor fit] | Potency [2]: inconclusive: 25.2 µM [inhibitor, partial curve] | Potency [3]: inactive | Potency [8]: inactive | Potency [6]: inconclusive: 12.7 µM [inhibitor, partial curve]

Cc1ccc(CNc2ncnc3ccc(-c4ccc([C@@H](C)O)o4)cc23)o1
Potency [1]: inconclusive: 11.3 µM [inhibitor, partial curve] | Potency [2]: inactive | Potency [3]: inconclusive: 6.31 µM [inhibitor, partial curve] and inconclusive: 15.8 µM [inhibitor, partial curve] | Potency [4]: inconclusive: 14.2 µM [inhibitor, partial curve] | Potency [5]: inactive

Cc1cc(C)nc(NCc2ccc(O)c3ncccc23)c1
Potency [1]: inconclusive: 14.2 µM [inhibitor, partial curve] | Potency [2]: inconclusive: 2.82 µM [inhibitor, full curve, poor fit] | Potency [3]: active: 11.2 µM | Potency [4]: inconclusive: 22.5 µM [inhibitor, partial curve] | Potency [5]: inconclusive: 8.91 µM [inhibitor, partial curve, poor fit]

CCOc1cc(CNc2ccc(O)cc2)ccc1OCc1ccc(Cl)cc1
Potency [1]: active: 10.1 µM | Potency [2]: active: 11.3 µM | Potency [3]: active: 3.16 µM | Potency [4]: active: 0.504 µM | Potency [5]: inconclusive: 0.447 µM [inhibitor, full curve, poor fit]
